From the supplement of paper PMC10600219
Structures can show the parent of a compound that is named as a salt. The full ranking holds about 2,800 compounds; the median of “cell viability relative to vehicle” is about 1.1, and the lowest 2% start at about 0.19. Some of the results follow.

System: NCI-H2228 parental
Assay: cell viability relative to vehicle (fraction of vehicle); NCI-H2228 is an ALK-positive lung cancer line and DTP means drug-tolerant persister; higher = less growth inhibition
Details: 100 nM; treatment time 6 days
In short: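 Each value is viability relative to vehicle-treated cells, measured as ATP with the CellTiter-Glo 3D Cell Viability Assay. Parental NCI-H2228 cells and drug-tolerant persisters (1000 nM targeted drug, 13 days) in 384-well plates received the 3114-agent TargetMol anti-cancer compound library at 100 nM, or DMSO, and were read 6 days later.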

Structure (SMILES)	cell viability
O=C(O)CCn1c2c(c3ccccc31)C[C@H](NS(=O)(=O)c1ccc(F)cc1)CC2 [Ramatroban]	0.815
COc1cnc(NS(=O)(=O)c2ccc(N)cc2)nc1 [Sulfameter]	1.17
Cc1cccc(CN2CCN(C(c3ccccc3)c3ccc(Cl)cc3)CC2)c1 (configuration not stated) [Meclizine dihydrochloride]	1.01
NC(Cc1ccccc1O)C(=O)O (racemic) [DL-O-Tyrosine]	1.03
OC1CCC(Oc2cccc3cnc(Nc4ccc5nc[nH]c5c4)nc23)CC1 (configuration not stated)	0.504
O=NN(CCCl)C(=O)NC1CCCCC1 [Lomustine]	0.994
CCOc1ccc(-c2nc(-c3cccc4c3CCC4NCCO)no2)cc1OCC (configuration not stated)	0.97
O=c1c2cc(O)c(O)cc2oc2cc(O)c([C@@H]3O[C@H](CO)[C@@H](O)[C@H](O)[C@H]3O)c(O)c12 [Mangiferin]	1.12
CC1=C[C@]2(O)O[C@@]3(CC2=C(C)C)[C@@H](C)CC[C@@H]13 [Curcumenol]	1.1
Cc1nnc(C(C)C)n1C1C[C@H]2CC[C@@H](C1)N2CC[C@H](NC(=O)C1CCC(F)(F)CC1)c1ccccc1 (stereo in doubt) [Maraviroc]	1.05
COc1ccc(-c2cc(=O)c3c(O)cc(O[C@@H]4O[C@H](CO[C@@H]5O[C@@H](C)[C@H](O)[C@@H](O)[C@H]5O)[C@@H](O)[C@H](O)[C@H]4O)cc3o2)cc1O [Diosmin]	1.06
COc1cc(Nc2ncc(F)c(Nc3ccc4c(n3)N(COP(=O)(O)O)C(=O)C(C)(C)O4)n2)cc(OC)c1OC [Fostamatinib]	1.03
COC(=O)c1cc(OC)c2c(c1-c1c(CO)cc(OC)c3c1OCO3)OCO2 [Bicyclol]	0.898
CC1CS(=O)(=O)CCN1/N=C/c1ccc([N+](=O)[O-])o1 (configuration not stated) [Nifurtimox]	1.02
COC1=C2C[C@@H](C)C[C@H](OC)[C@H](O)[C@@H](C)/C=C(\C)[C@H](OC(N)=O)[C@@H](OC)/C=C\C=C(/C)C(=O)NC(=CC1=O)C2=O [Geldanamycin]	1.02
Oc1cc(CN2CCOCC2)c(O)cc1CN1CCOCC1	1.06
CN1CC2c3ccccc3Oc3ccc(Cl)cc3C2C1 (configuration not stated) [Asenapine Maleate]	1.15
c1ccc2[nH]c(-c3cscn3)nc2c1 [Thiabendazole]	1.23
Cn1cc(-c2ccc3nnc(C(F)(F)c4ccc5ncccc5c4)n3n2)cn1	1.01
CN1[C@@H](CC(=O)c2ccccc2)CCC[C@H]1C[C@H](O)c1ccccc1 [Lobeline hydrochloride]	0.988
CCC(CC)CC1(C(=O)Nc2ccccc2SC(=O)C(C)C)CCCCC1 [Dalcetrapib]	1.1
CCc1cnn2c(NCc3ccc[n+]([O-])c3)cc(N3CCCC[C@H]3CCO)nc12 [Dinaciclib]	0.118
O=C1NC(=O)[C@@H](c2cn3c4c(cccc24)CCC3)[C@@H]1c1c[nH]c2ccccc12 [Tivantinib]	0.933
CC(=O)Nc1ccc(C(=O)NC(C)(C)C)cc1	0.944
CCCN1CCN(c2ccc(C(=O)NC3(C(=O)NCC#N)CCCCC3)cc2)CC1 [Balicatib]	1.07
C[C@H]1Oc2cc(cnc2N)-c2c(nn(C)c2C#N)CN(C)C(=O)c2ccc(F)cc21 [Lorlatinib]	0.659

Structure (SMILES)	cell viability
C[C@@]1(c2cc(-c3cncnc3)c(F)cc2F)CCSC(N)=N1	1.07
CC(C(=O)Nc1cccc(/N=C/c2c(O)ccc3ccccc23)c1)c1ccccc1 (configuration not stated) [Salermide]	1.06
CC(C)Cc1ccc(-c2nc(-c3ccc(CN4CC(C(=O)O)C4)c(F)c3)no2)cc1 [S1p-receptor-agonist-1]	1.05
CC(C)NCC(O)c1cc(O)cc(O)c1 (configuration not stated) [Orciprenaline sulfate]	0.856
CC(=O)/C(C)=N/O [2,3-Butanedione 2-Monoxime]	1.13
O=C1/C(=C/c2ccc(O)cc2)Oc2cc(O)ccc21 [Hispidol]	1.13
O=C(O)CN(CCN(CC(=O)O)CC(=O)O)CCN(CC(=O)O)CC(=O)O [Pentetic Acid]	1.1
C#CCN(C)CCCOc1ccc(Cl)cc1Cl [Clorgyline hydrochloride]	1.03
CC(=O)NCCC(=O)O	0.856
COc1ccc2[nH]c(C(=O)c3ccccc3)cc2c1	0.197
O=C(/C=C/C=C/c1ccc2c(c1)OCO2)N1CCCCC1 [Piperine]	1.07
O=C(O)C(S)=Cc1c[nH]c2ccc(F)cc12	0.99
O=c1c2ccccc2nc2n1CCc1c-2[nH]c2ccccc12 [Rutaecarpine]	1
OC[C@H]1O[C@@H](n2cnc3c2N=CNC[C@H]3O)C[C@@H]1O [Pentostatin]	1.14
CN(C)c1ccccc1CN1CCCN(Cc2ccccc2N(C)C)C1c1ccncc1	1.04
CCN(CC)Cc1cc(Nc2ccnc3cc(Cl)ccc23)ccc1O [Amodiaquine hydrochloride]	1.23
C[C@H](CCOc1cccc(CC(=O)O)c1)N(Cc1cccc(C(F)(F)F)c1Cl)CC(c1ccccc1)c1ccccc1	1.02
COc1ccccc1N1CCN(CCCNc2cc(=O)n(C)c(=O)n2C)CC1 [Urapidil hydrochloride]	1.1
COc1ccccc1N1CCN(CCCNc2cc(=O)n(C)c(=O)n2C)CC1 [Urapidil]	1.08
O=C(Nc1cccc(Nc2ncc(Br)c(NCCc3cnc[nH]3)n2)c1)N1CCCC1	1.3
COc1nc(N)nc2c1ncn2[C@@H]1O[C@H](CO)[C@@H](O)[C@@H]1O [Nelarabine]	1.08
COc1cccc(-c2cc(F)ccc2[C@H]2Cc3nc(N)nc(C)c3C(=O)N2)n1	0.171
CN(C)CCCn1cc(C2=C(c3c[nH]c4ccccc34)C(=O)NC2=O)c2ccccc21 [Bisindolylmaleimide I]	1.07
O=C1CCC(N2C(=O)c3ccccc3C2=O)C(=O)N1 (configuration not stated) [Thalidomide]	1.01
c1cn2cc(-c3ccc4cn[nH]c4c3)nc(Nc3ccc(N4CCOCC4)cc3)c2n1 [Entospletinib]	0.904
C[C@H](CCC(=O)NCCS(=O)(=O)O)[C@H]1CC[C@H]2[C@@H]3[C@@H](O)C[C@@H]4C[C@H](O)CC[C@]4(C)[C@H]3CC[C@]12C [Tauroursodeoxycholic Acid]	1.23
